Data as given in a compilation of properties of binary mixtures (doi:10.1016/j.jct.2021.106418).
The densities may have been worked out from excess volumes.

Assay: xn = mol fraction of the nth substance listed
Settings: 100 kPa

CC(N)C(=O)[O-].CCCC[n+]1ccn(C)c1C + O
mass density [kg/m3]
Settings | 288.15 K | 293.15 K | 298.15 K | 303.15 K | 308.15 K | 313.15 K | 318.15 K | 323.15 K | 328.15 K
x1 = 0.811 | 1091.7 | 1088.8 | 1085.5 | 1082.6 | 1079.6 | 1076.7 | 1073.8 | – | 1068.1
x1 = 0.8382 | 1092.1 | 1089.2 | – | 1083 | 1080.1 | 1077.1 | 1074.3 | 1071.6 | 1068.5
x1 = 0.8693 | 1092.6 | 1089.7 | 1086.4 | – | 1080.6 | 1077.6 | 1074.8 | 1072.1 | –
x1 = 0.9058 | – | – | 1087 | – | – | 1078.1 | 1075.3 | – | 1069.5
x1 = 0.9381 | 1093.7 | 1090.7 | 1087.5 | 1084.5 | – | 1078.7 | – | – | 1070.1
x1 = 1 | – | – | 1088.3 | 1085.2 | 1082.3 | 1079.4 | – | 1073.8 | 1070.8

CCCC[n+]1ccn(C)c1C.NCC(=O)[O-] + O
mass density [kg/m3]
Settings | 288.15 K | 293.15 K | 298.15 K | 303.15 K | 308.15 K | 313.15 K | 318.15 K | 323.15 K | 328.15 K
x1 = 0.8079 | 1128.4 | – | 1121.9 | 1118.9 | 1115.7 | 1112.4 | 1109.3 | 1106 | 1102.8
x1 = 0.8325 | 1128.9 | 1125.7 | – | 1119.5 | 1116.2 | 1113 | 1109.7 | 1106.6 | 1103.3
x1 = 0.874 | 1129.6 | – | – | – | – | 1113.8 | 1110.6 | – | –
x1 = 0.9108 | 1130.3 | 1127.2 | – | – | 1117.7 | 1114.5 | 1111.2 | – | 1104.8
x1 = 0.9415 | 1130.7 | 1127.6 | 1124.5 | 1121.3 | 1118.1 | 1114.9 | 1111.8 | 1108.6 | 1105.5
x1 = 1 | 1131.6 | 1128.5 | 1125.4 | 1122.2 | 1119 | 1115.9 | 1112.6 | 1109.5 | 1106.4
